From article PMC7508895 (Nanomedicine : nanotechnology, biology, and medicine, 2020)

Experiments:
[1] = molecular target: the molecule itself; assay: SEC-MALS
[2] = molecular target: T1, CD99 (human (endogenous in MOLM-13, MV4-11, …, UniProt P14209 23-185)); assay: flow cytometry on cells
T1 sequence (looked up): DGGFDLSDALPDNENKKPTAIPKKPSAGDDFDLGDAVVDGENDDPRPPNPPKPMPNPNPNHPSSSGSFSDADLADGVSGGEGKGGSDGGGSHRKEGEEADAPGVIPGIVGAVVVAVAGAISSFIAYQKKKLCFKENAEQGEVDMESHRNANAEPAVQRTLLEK

B1: α-CD99-A192 (scFv)
scFv: [about 100 residues not printed]SHKRFDYWGQGTLVTVSRGGGGSGGGGSGGGGSSELTQDPAVSVALGQTVRITCQGDSLRSYYASWYQQKPGQAPVLVIYGKNNRPSGIPDRFSGSSSGNTASLTITGAQAEDEADYYCNSSFPRTSSVVFGGGTKLTVLGLVPRGSGVPGAGVPGAGVPGAGVPGAGVPGAGVPGAGVPGAGVPGAGVPGAGVPGAGVPGAGVPGAGVPGAGVPGAGVPGAGVPGAGVPGAGVPGAGVPGAGVPGAGVPGAGVPGAGVPGAGVPGAGVPGAGVPGAGVPGAGVPGAGVPGAGVPGAGVPGAGVPGAGVPGAGVPGAGVPGAGVPGAGVPGAGVPGAGVPGAGVPGAGVPGAGVPGAGVPGAGVPGAGVPGAGVPGAGVPGAGVPGAGVPGAGVPGAGVPGAGVPGAGVPGAGVPGAGVPGAGVPGAGVPGAGVPGAGVPGAGVPGAGVPGAGVPGAGVPGAGVPGAGVPGAGVPGAGVPGAGVPGAGVPGAGVPGAGVPGAGVPGAGVPGAGVPGAGVPGAGVPGAGVPGAGVPGAGVPGAGVPGAGVPGAGVPGAGVPGAGVPGAGVPGAGVPGAGVPGAGVPGAGVPGAGVPGAGVPGAGVPGAGVPGAGVPGAGVPGAGVPGAGVPGAGVPGAGVPGAGVPGAGVPGAGVPGAGVPGAGVPGAGVPGAGVPGAGVPGAGVPGAGVPGAGVPGAGVPGAGVPGAGVPGAGVPGAGVPGAGVPGAGVPGAGVPGAGVPGAGVPGAGVPGAGVPGAGVPGAGVPGAGVPGAGVPGAGVPGAGVPGAGVPGAGVPGAGVPGAGVPGAGVPGAGVPGAGVPGAGVPGAGVPGAGVPGAGVPGAGVPGAGVPGAGVPGAGVPGAGVPGAGVPGAGVPGAGVPGAGVPGAGVPGAGVPGAGVPGAGVPGAGVPGAGVPGAGVPGAGVPGAGVPGAGVPGAGVPGAGVPGAGVPGAGVPGAGVPGAGVPGAGVPGAGVPGAGVPGAGVPGAGVPGAGVPGAGVPGAGVPGAGVPGAGVPGAGVPGAGVPGAGVPGAGVPGAGY
modifications: NHS-rhodamine label in the flow cytometry and confocal assays; no label told for DLS and SEC-MALS
- stoichiometry N [1]: 171 molecules per nanoworm
- fold binding (rhodamine MFI) at 1 μM, U937 cells [2]: 1.5 fold
- fold binding (rhodamine MFI) at 10 μM, U937 cells [2]: 1.9 fold
- fold binding (rhodamine MFI) over A192 at 1 μM, MOLM-13 cells [2]: 2.4 fold
- fold binding (rhodamine MFI) over A192 at 1 μM, MV4-11 cells [2]: 1.7 fold
- fold binding (rhodamine MFI) over A192 at 10 μM, MOLM-13 cells [2]: 3.1 fold
- fold binding (rhodamine MFI) over A192 at 10 μM, MV4-11 cells [2]: 2.8 fold
